Measurements from article PMC4336329 (PLoS ONE, 2015).
In all, about 310,000 compounds went through this assay and about 2,200 (0.71%) showed an effect of 50% or more. Effects have a minus sign here. Some of the results follow.

What follows are compounds tested against human ether-à-go-go-related gene (hERG) potassium channel (human, UniProt Q12809) (assay: primary screen, population patch clamp on CHO cells stably expressing hERG).
Chain of human ether-à-go-go-related gene (hERG) potassium channel (Q12809 whole entry, looked up): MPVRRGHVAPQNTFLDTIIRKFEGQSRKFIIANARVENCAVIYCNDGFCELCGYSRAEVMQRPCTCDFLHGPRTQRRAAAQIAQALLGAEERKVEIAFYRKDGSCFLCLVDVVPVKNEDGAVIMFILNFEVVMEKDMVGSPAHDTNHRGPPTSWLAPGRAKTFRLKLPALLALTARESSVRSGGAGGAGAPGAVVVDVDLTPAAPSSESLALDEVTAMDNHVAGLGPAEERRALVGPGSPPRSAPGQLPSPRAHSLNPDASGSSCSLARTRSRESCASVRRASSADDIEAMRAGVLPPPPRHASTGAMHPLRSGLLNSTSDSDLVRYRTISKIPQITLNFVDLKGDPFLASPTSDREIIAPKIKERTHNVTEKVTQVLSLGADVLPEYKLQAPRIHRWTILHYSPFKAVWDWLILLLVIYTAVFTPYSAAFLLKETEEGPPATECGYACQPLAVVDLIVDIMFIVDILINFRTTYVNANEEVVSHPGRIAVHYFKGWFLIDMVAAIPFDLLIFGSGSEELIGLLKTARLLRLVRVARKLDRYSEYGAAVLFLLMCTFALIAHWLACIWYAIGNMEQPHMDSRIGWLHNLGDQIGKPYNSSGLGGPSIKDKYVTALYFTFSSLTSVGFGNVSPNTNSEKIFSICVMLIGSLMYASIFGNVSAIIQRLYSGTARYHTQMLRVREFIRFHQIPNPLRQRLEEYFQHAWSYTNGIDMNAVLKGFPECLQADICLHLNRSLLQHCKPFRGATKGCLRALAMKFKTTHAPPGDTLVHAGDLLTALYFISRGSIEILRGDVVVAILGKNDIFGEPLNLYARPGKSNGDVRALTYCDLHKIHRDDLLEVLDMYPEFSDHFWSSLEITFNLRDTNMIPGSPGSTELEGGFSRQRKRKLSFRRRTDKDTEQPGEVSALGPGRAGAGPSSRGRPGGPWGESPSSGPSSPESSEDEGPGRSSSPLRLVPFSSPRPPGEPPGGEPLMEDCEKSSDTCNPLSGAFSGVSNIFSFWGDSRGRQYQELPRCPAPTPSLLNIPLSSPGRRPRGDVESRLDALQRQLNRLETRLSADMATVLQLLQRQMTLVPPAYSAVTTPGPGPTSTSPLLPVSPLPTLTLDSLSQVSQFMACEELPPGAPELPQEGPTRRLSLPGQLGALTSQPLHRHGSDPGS

Point of comparison: `O=C(O)c1cccc2c1C(=O)c1ccc(-c3ccc(F)cc3F)cc1S2(=O)=O`, “hERG current change (%, negative = inhibition) at 1uM” value 10.2%. Against it:
- Cc1ccc(C)c(N(CC(=O)NC2CCCC2)C(=O)CCC(=O)Nc2nccs2)c1 — lower, 1.21%
- C=CCNC(=O)c1ccccc1NC(=O)COc1ccc(OC)cc1 — higher, 11.4%
- CCOc1ccc(NC(C)=O)cc1N — lower, 7.3%
- CCC(C)Sc1nc2c(c(=O)[nH]c(=O)n2C)n1Cc1ccccc1Cl (stereo not shown) — higher, 14.3%
- CCN1CCN(C(=O)C(C)Oc2ccc(S(=O)(=O)N3CCCC3)cc2C(N)=O)CC1 (stereo not shown) — lower, 1.4%
- C[C@@H](C(=O)CC(=O)OC(C)(C)C)[C@@H](O)c1c(F)cccc1Cl — lower, 10.1%
- CC(NCc1ccc2c(c1)OCO2)C(=O)NC1CCCc2ccccc21.O=C(O)C(=O)O (stereo not shown) — lower, -10.7%
- COc1ccc(CNC(=O)CSc2nnc(-c3ccc(NC(C)=O)cc3)n2C)cc1 — lower, 1.67%
- Cc1cc(C)cc(NC(=O)CN2C(=O)c3ccccc3C2=O)c1 — lower, 0.538%
- CC(=O)N(Cc1cc(=O)[nH]c2ccccc12)c1ccccc1C — higher, 12.1%
- CSc1nc2ccc(NC(=O)c3ccco3)cc2s1 — lower, 7.01%
- Cc1cc(C)nc(NC(=O)c2cc3ccccc3o2)n1 — higher, 11%
- Cc1cc(C)nc(NC(=O)/C=C/c2cccs2)c1 — lower, 3.4%
- COc1ccc(Cc2nc3ccc(C(=O)NCCc4ccccn4)cc3o2)cc1OC — lower, 3.48%
- On1nnc2c3ccccc3c3ccccc3c21 — higher, 16.8%
- Cc1ccnc2nc(NC(=O)c3ccco3)nn12 — higher, 19.3%
- COc1ccccc1NC(=O)Nc1nc(CC(=O)NCc2c(F)cccc2F)cs1 — higher, 13.1%
- CCN(CC)CCNC(=O)C1CCC(=O)N1CCc1ccccc1 (stereo not shown) — lower, 7.89%
- COC(=O)c1ccccc1N=Nc1c(C)n[nH]c1C — lower, 7.54%
- CCN(CC)CCCNC(=O)C1c2ccccc2C(=O)N(C)C1c1ccc(OC)cc1 (stereo not shown) — lower, 8.24%
- CCc1nnc(NC(=O)CCN2C(=O)CCC2=O)s1 — lower, 8.52%
- COc1cc(C2=NOC(C(=O)N3CCOCC3)C2)cc(OC)c1OC (stereo not shown) — lower, 5.41%
- COc1ccc(NC(=O)C2CCCCN2S(=O)(=O)c2ccc(F)cc2)cc1 (stereo not shown) — lower, 3.66%
- O=C(Nc1cc(Sc2nc3ccccc3s2)cc([N+](=O)[O-])c1)c1ccccc1 — higher, 12.4%
- Cc1ccc2c(c1)c(=O)c(Br)c(C)n2Cc1ccccc1 — lower, 7.08%
- Nc1ccccc1C(=O)NCCCN1CCOCC1 — lower, 4.35%
- CC(=O)Nc1ccc(OCc2ccc3c(c2)OCO3)cc1 — lower, 5.52%
- CCCn1c(=NC(=O)c2c(-c3c(F)cccc3Cl)noc2C)c(C(=O)OCC)cc2c(=O)n3ccccc3nc21 — lower, 4.2%
- O=C(Nc1ccccc1C(=O)NCCCN1CCOCC1)c1ccc(F)cc1F — higher, 11.8%
- COc1ccc(NC(=S)N(C(C)C)C2CCN(C(C)C)CC2)cc1Cl — higher, 10.9%
- O=C(O)C1C2C=CC(C2)C1C(=O)Nc1nccs1 (stereo not shown) — higher, 16.2%
- COC(=O)CNC(=O)CSc1nc2sccc2c(=O)n1-c1ccccc1 — lower, 9.01%
- O=C(COc1ccc(/C=N/NC(=O)c2cccnc2)cc1)Nc1ccccc1 — lower, 8.85%
- Cc1cc2cc(CN3C(=O)c4ccccc4C3=O)ccc2n1C — higher, 13.5%
- O=C1/C(=C/c2cccnc2)CCc2c1[nH]c1ccccc21 — lower, 1.75%
- O=C(Nc1ccc(-n2cnnn2)cc1)C1CCC1 — higher, 13.2%
- Cc1cccc(NC(=O)c2cccc(C(=O)Nc3cccc(C)c3C)n2)c1C — higher, 18.1%
- CN(C)/C=C/C(=O)c1ccccc1 — lower, -0.962%
- COc1ccc(CC(=O)N/N=C/c2c(C)n(C)c3ccccc23)cc1OC — lower, 3.07%
- O=C(CC1CCCCC1)N1CCC(c2nc(-c3ccc(S(=O)(=O)N4CCCC4)cc3)no2)CC1 — lower, -1.89%
- CC1CC(C)CN(C(=O)COC(=O)c2c[nH]c3ccccc23)C1 (stereo not shown) — lower, -8.31%
- CCC(C)c1ccc(NC(=O)C2CCN(c3ccc(C(F)(F)F)cn3)CC2)cc1 (stereo not shown) — lower, 9.78%
- O=C(CC1CCCC1)Nc1cc(C(F)(F)F)ccc1-n1cncn1 — lower, 2.88%
- O=C1Nc2ccccc2N=C(c2ccccc2)C1N1CCOCC1 (stereo not shown) — higher, 18.1%
- CCOC(=O)c1cnc2cc(-c3ccc(Br)cc3)nn2c1C — higher, 18.3%
- Cc1ccc(/C=c2\sc3nc(-c4ccco4)nn3c2=O)o1 — lower, -1.26%
- COc1ccc(OC)c(C(C)NC(=O)Nc2cccc(C(C)=O)c2)c1 (stereo not shown) — higher, 11.4%
- COc1ccc(COCC(O)CN2CCC(C(N)=O)CC2)cc1OC (stereo not shown) — lower, 7.91%
- Cn1c(C(=O)NCCCN2CCN(c3cccc(Cl)c3)CC2)cc2c(=O)n(C)c3ccccc3c21 — higher, 11.8%
- Cc1ccc(OCC(=O)Nc2ccc(S(=O)(=O)N3CCN(C)CC3)cc2)cc1 — lower, 9.45%
- O=C1c2ccccc2NC(c2cccc(O)c2)N1Cc1ccco1 (stereo not shown) — lower, 9.32%
- CCCCNCCOCCOc1ccc(F)cc1 — lower, 8.42%
- CCc1nc(N2CCN(C(=O)c3ccccc3)CC2)c(C#N)c2c1COC(C)(C)C2 — lower, -1.39%
- CCN(CC)CCSc1nc2ccc(OC)cc2[nH]1.Cl — lower, -15.8%
- CC(C)CNC(=S)NNC(=O)c1ccccc1OC(F)F — lower, 5.74%
- COc1ccc(NC(=O)Nc2ccc3[nH]ccc3c2)cc1 — higher, 12.7%
- c1nc(N2CCN(Cc3ccc4c(c3)OCO4)CC2)c2[nH]cnc2n1 — lower, 4.17%
- CCC1C(=O)NCCN1Cc1nc(-c2ccc(C)s2)oc1C (stereo not shown) — higher, 18%
- FC(F)(F)c1cccc(-n2c(Cn3nnc4ccccc43)n[nH]c2=S)c1 — higher, 13.4%
- O=C(CN1C(=O)C2C3c4ccccc4C(c4ccccc43)C2C1=O)N1CCOCC1 (stereo not shown) — lower, 0.75%
- CS(=O)(=O)N1CCC(C(=O)Nc2cc(Cl)cc(Cl)c2)CC1 — lower, 8.74%
- CCOC(=O)c1nc(C)n(-c2cc(Cl)ccc2Cl)n1 — lower, 6.72%
- O=C(c1ccc(C(F)(F)F)cc1)C1CCCN(C(=O)CCc2cnccn2)C1 (stereo not shown) — higher, 14.1%
- NC(=O)c1sc2cc(C(F)(F)F)cnc2c1-c1cccs1 — lower, 9.47%
- O=C(NN=C1CCCC1)c1cc(Br)ccc1O — lower, 9.9%
- CC(=O)Nc1nc(C)nc(C)c1C(C)=O — higher, 10.9%
- Cc1ccc([N+](=O)[O-])cc1-c1ccc(/C=C(\C#N)c2[nH]nc(N)c2C#N)o1 — higher, 15%
- O=C(OCCc1cc2ccccc2c(=O)o1)c1ccc(F)cc1 — higher, 16.2%
- CCCn1ccnc1SC(C)C(=O)Nc1c(C)n(C)n(-c2ccccc2)c1=O (stereo not shown) — higher, 13.4%
- COc1ccc(-n2c(SCCC(=O)O)nnc2-c2ccncc2)cc1 — lower, 7.01%
- O=C(c1cc2ccccc2cc1O)N1CCCC(C(F)(F)F)C1 (stereo not shown) — lower, 7.51%
- COc1ccc(OCC(=O)N2CCN(c3cccc(Cl)c3)CC2)cc1 — lower, -10.3%
- CCn1c(SCC(=O)NCc2ccccc2)nnc1-c1c[nH]c2ccccc12 — lower, -7.03%
- Cc1cccn2c(NCc3ccc4c(c3)OCO4)c(-c3ccc(O)cc3)nc12 — lower, -6.87%
- CC(=O)Nc1ccc(NC(=O)COC(=O)c2cc(S(=O)(=O)N(C)C)ccc2N2CCCC2)cc1 — lower, 8.5%
- C/C(=N/N1CCN(Cc2ccccc2)CC1)c1ccc(Br)cc1 — lower, 7.67%
- CC1CCc2cc(F)ccc2N1S(=O)(=O)c1ccc(Cl)nc1 (stereo not shown) — higher, 12%
- O=C(Nc1nc(=O)c2ccccc2s1)c1ccc(F)cc1 — higher, 15.6%
- CCN(CC)CCN1C(=O)c2ccccc2NC1c1ccc(C)cc1 (stereo not shown) — lower, -48.3%
- COc1ccc(NC(=O)CCNS(=O)(=O)c2ccc3c(c2)c(=O)n(C)c(=O)n3C)cc1 — lower, 1.01%
- O=C(c1c(F)cccc1F)N1CCN(CCOc2ccccc2)CC1 — lower, 8.41%
- CCOC(=O)C1(CCCc2ccccc2)CCN(C(=O)c2cnc(C)cn2)CC1 — lower, -1.76%
- COc1ccc(OCc2ccc(C(=O)NN)cc2)cc1 — lower, -2.28%
- O=C(Cn1c(=O)n(-c2cccc(Cl)c2)c(=O)n1CC(=O)N1CCCCC1)N1CCCCC1 — higher, 11.2%
- O=C(NC(=S)Nc1ccccc1)c1cncc(C#Cc2ccccc2)c1 — higher, 12.8%
- C/C(=N/NC(=O)c1cc(C)[nH]n1)c1ccncc1 — lower, 8.47%
- C=CCn1c(Sc2nncn2C)nc2c1c(=O)[nH]c(=O)n2C — lower, 5.52%
- COc1cccc(NC(=S)N2CCCC2c2ccc(OC)c(OC)c2)c1 (stereo not shown) — lower, 4.25%
- COc1ccc(C(=O)OCC(=O)NCc2ccc3c(c2)OCO3)cc1[N+](=O)[O-] — higher, 15.6%
- C/C(=N/NC(=O)c1ccc(Br)s1)c1cccnc1 — lower, -1.16%
